The target of assay [1] is T1, FLAG-Aven (full-length human Aven) (human) (UniProt Q9NQS1).
T1 sequence (chain, methylarginines in the N-terminus (recognised by ASYM25b)): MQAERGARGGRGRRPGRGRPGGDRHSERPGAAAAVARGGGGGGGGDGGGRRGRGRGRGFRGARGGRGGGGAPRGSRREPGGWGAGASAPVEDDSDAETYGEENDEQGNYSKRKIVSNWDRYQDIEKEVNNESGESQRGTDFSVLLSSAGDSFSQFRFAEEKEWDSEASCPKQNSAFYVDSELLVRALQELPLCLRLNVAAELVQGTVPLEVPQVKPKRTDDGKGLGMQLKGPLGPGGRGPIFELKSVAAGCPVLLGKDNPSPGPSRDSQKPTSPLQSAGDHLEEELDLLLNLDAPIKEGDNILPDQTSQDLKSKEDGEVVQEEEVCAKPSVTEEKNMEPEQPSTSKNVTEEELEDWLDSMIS
Briefly: co-IP; anti-FLAG immunoprecipitation of lysates of cells transfected with pcDNA3.1, FLAG-Aven or FLAG-AvenΔRGG; endogenous TDRD3, SMN or DHX36 by immunoblot; also FLAG-Aven with siControl or siPRMT1; lysis buffer 20 mM Tris pH 7.4, 150 mM NaCl, 1 mM EDTA, 1 mM EGTA, 1% Triton X-100.

The chains behind the UniProt entries cited, without tags or fusion partners. Where a name states a change or a piece, a line headed by the entry shows the natural chain unless it says otherwise. Residues count along the entry.
UniProt Q16637: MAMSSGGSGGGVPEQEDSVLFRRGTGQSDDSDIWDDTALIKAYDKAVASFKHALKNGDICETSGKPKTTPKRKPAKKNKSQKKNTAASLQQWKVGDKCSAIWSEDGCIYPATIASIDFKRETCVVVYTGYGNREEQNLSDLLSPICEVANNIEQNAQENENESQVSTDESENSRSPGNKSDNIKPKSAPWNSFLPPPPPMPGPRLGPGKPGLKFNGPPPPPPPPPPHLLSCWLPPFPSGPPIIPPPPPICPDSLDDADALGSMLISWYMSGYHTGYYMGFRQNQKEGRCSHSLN
GST-SMN Tudor domain: residues 91-151 of Q16637
UniProt Q9H7E2: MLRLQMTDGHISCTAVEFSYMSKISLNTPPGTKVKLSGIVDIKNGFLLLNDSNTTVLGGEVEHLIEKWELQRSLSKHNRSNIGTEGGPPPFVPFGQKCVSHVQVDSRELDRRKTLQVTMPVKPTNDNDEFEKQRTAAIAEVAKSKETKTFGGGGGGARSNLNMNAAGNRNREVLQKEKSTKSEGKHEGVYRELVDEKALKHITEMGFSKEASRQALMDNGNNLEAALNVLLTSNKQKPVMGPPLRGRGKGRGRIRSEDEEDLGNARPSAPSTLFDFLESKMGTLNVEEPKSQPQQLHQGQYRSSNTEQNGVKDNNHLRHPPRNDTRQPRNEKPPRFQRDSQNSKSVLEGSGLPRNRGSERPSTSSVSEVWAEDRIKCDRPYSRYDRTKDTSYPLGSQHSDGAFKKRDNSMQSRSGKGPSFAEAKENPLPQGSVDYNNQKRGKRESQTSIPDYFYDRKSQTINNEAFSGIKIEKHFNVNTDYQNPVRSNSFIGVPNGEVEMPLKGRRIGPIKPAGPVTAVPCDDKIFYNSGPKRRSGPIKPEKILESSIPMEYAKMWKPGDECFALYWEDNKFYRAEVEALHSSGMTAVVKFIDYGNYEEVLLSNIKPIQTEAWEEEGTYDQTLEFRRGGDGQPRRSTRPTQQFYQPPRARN
GST-TDRD3 Tudor domain: residues 555-615 of Q9H7E2
UniProt P97801: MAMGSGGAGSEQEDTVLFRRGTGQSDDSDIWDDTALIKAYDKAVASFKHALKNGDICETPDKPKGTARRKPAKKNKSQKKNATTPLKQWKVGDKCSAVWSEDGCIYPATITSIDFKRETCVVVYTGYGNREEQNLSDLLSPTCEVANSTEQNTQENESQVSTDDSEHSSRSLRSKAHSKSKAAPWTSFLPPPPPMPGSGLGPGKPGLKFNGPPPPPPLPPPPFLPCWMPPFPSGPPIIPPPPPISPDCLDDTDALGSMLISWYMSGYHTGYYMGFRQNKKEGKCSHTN

The target of assay [2] is T2, FLAG-AvenΔRGG (human Aven lacking amino acids 1-73) (human) (UniProt Q9NQS1).
T2 sequence: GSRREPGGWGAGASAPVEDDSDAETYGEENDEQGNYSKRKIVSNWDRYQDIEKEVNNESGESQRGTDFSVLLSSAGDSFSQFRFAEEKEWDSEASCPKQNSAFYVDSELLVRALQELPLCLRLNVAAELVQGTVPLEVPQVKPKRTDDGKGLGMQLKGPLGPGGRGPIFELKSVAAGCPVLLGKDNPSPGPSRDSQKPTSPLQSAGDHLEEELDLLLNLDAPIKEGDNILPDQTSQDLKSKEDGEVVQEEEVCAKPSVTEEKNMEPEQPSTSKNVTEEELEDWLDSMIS
Described as above.

For assay [3], the target named is T3, Aven, endogenous (mouse embryo fibroblasts) (mouse (endogenous in MEFs)) (UniProt Q9D9K3).
T3 sequence (chain, asymmetrically dimethylated by PRMT1 (ASYM25b) in untreated cells): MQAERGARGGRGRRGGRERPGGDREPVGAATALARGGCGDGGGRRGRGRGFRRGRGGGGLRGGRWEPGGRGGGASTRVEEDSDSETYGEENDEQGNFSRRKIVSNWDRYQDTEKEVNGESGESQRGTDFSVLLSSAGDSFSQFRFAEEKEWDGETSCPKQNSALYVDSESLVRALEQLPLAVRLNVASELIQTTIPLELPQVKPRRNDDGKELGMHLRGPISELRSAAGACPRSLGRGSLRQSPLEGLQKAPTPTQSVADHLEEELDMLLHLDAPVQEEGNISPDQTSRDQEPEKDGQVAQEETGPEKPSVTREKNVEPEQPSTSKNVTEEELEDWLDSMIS
Briefly: co-IP; anti-Aven immunoprecipitation of lysates of untreated (vehicle) PRMT1^FL/-;CreERT MEFs; immunoblot with anti-SMN and anti-TDRD3.

In assay [4] the target is T3, Aven, endogenous (mouse embryo fibroblasts) (mouse (endogenous in MEFs)). The assay can be described thus: condition: only PRMT1-deficient MEFs (+OHT for 6 days); co-IP; anti-Aven immunoprecipitation of lysates of PRMT1^FL/-;CreERT MEFs treated with OHT for 6 days (PRMT1-deficient); immunoblot with anti-SMN and anti-TDRD3.
The target in another assay is GST-SMN Tudor domain (UniProt Q16637). The assay can be described thus: pull-down; 1 µg purified GST-Tudor protein on glutathione agarose incubated 1 hr at 4°C with lysates of transfected cells (U2OS in text and methods, HEK293T in the legend); washed three times with lysis buffer; anti-FLAG immunoblot; only the target purified.
A further assay addresses T4, GST-SPF30 Tudor domain (UniProt O75940).
T4 sequence: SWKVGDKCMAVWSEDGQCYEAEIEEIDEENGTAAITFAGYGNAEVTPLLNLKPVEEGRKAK
Described as above.

Another assay addresses GST-TDRD3 Tudor domain (UniProt Q9H7E2). The description is as above.

Results are given in words; binding and its absence hold for the method and conditions named. In cells and extracts the contact can be indirect. Some binding calls cover weakened binding; strength is not graded here. For some assays here: Sequences can lack the tags named with a protein.

For the molecule “SMN, endogenous (human cells) (from UniProt Q16637 1-294)”, the binding result in assay [1] is on record as “binds”; in assay [2], “no binding”.
“TDRD3, endogenous (human cells) (from UniProt Q9H7E2 1-651)”: the binding entry in assay [1] was “binds”; in assay [2], “no binding”.
With “SMN, endogenous (mouse embryo fibroblasts) (from UniProt P97801 1-288)”, the binding entry was “binds” in assay [3] and “no binding” in assay [4].
In the case of “TDRD3, endogenous (mouse embryo fibroblasts) (from UniProt Q91W18 1-743)”, the binding entry in assay [3] is “binds”; in assay [4] it was “no binding”.

B1: FLAG-Aven (full-length human Aven) (protein, UniProt Q9NQS1 1-362)
chain: MQAERGARGGRGRRPGRGRPGGDRHSERPGAAAAVARGGGGGGGGDGGGRRGRGRGRGFRGARGGRGGGGAPRGSRREPGGWGAGASAPVEDDSDAETYGEENDEQGNYSKRKIVSNWDRYQDIEKEVNNESGESQRGTDFSVLLSSAGDSFSQFRFAEEKEWDSEASCPKQNSAFYVDSELLVRALQELPLCLRLNVAAELVQGTVPLEVPQVKPKRTDDGKGLGMQLKGPLGPGGRGPIFELKSVAAGCPVLLGKDNPSPGPSRDSQKPTSPLQSAGDHLEEELDLLLNLDAPIKEGDNILPDQTSQDLKSKEDGEVVQEEEVCAKPSVTEEKNMEPEQPSTSKNVTEEELEDWLDSMIS
modifications: methylarginines in the N-terminus (recognised by ASYM25b)
For B1, the binding entry with GST-SMN Tudor domain is recorded as “binds”; in the assay with GST-SPF30 Tudor domain, “binds weakly”; in the assay with GST-TDRD3 Tudor domain, “binds”.

B2: FLAG-AvenΔRGG (human Aven lacking amino acids 1-73) (domain or fragment, UniProt Q9NQS1 74-362)
chain: GSRREPGGWGAGASAPVEDDSDAETYGEENDEQGNYSKRKIVSNWDRYQDIEKEVNNESGESQRGTDFSVLLSSAGDSFSQFRFAEEKEWDSEASCPKQNSAFYVDSELLVRALQELPLCLRLNVAAELVQGTVPLEVPQVKPKRTDDGKGLGMQLKGPLGPGGRGPIFELKSVAAGCPVLLGKDNPSPGPSRDSQKPTSPLQSAGDHLEEELDLLLNLDAPIKEGDNILPDQTSQDLKSKEDGEVVQEEEVCAKPSVTEEKNMEPEQPSTSKNVTEEELEDWLDSMIS
Regarding B2, the binding result with GST-SMN Tudor domain, in the assay with GST-SPF30 Tudor domain and with GST-TDRD3 Tudor domain was “no binding” each time.

Values taken from article PMC4561382, “Aven recognition of RNA G-quadruplexes regulates translation of the mixed lineage leukemia protooncogenes”.
